Structures are written as SMILES.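 Test compounds were applied to cells in 96-well plates for 48 hours at 5 doses. GI50 marks 50% less growth. TGI marks complete inhibition of growth.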

In the experiment the test system is NCI-H322M lung. As to the kind of experiment: NCI anticancer screen, dose series, 48 h.
On to `COc1ccc2c3c1OC1C(OC)(OC)CC4(C=C2)CN(C)CCC314` (stereo not drawn), for which the TGI is above 100 µM.
The same measure, in the same setting: in the case of `CC(=O)NC1=C(N)C(=O)c2ccccc2C1=O` it was above 100 µM; in that of `CNC(=S)/C(C#N)=C(\N)N1CCCC1`, above 100 µM.
For the compound `CCc1nn2ncccc2c1-c1ccnc(NC2CC2)n1`, the GI50 is above 25 µM and the TGI was above 25 µM.
`COc1cccc2nc3c(C(=O)NCCN(C)C)cccc3nc12` returned a TGI of 36.7 µM.
For `Cc1ccc(C(=O)N/N=C2/C(=O)c3c4ccccc4cc4cccc2c34)cc1`, the TGI is above 100 µM.
In turn, `NC(=S)N/N=C1/CN(c2ccc(Cl)c(Cl)c2)CC(=O)C1c1nc2ccccc2s1` (stereo not drawn) had a TGI above 100 µM.
`CCOC(=O)c1nc2cc(C(F)(F)F)ccc2nc1Oc1ccc(F)cc1` yielded a TGI above 100 µM.
Turning to `Cc1ccc(C2C(Cl)C(=O)N2NC(=O)c2ccc(N)cc2)cc1` (stereo not drawn), the TGI amounted to 42 µM.
Compound `C=Cc1c(C)c2cc3[nH]c(cc4nc(cc5nc(cc1[nH]2)C(C)=C5CCC(=O)N(CC)CC)C(CCC(=O)N(CC)CC)=C4C)c(C)c3C=C` registered a TGI above 100 µM.
As to `N#Cc1c(-c2ccccc2)cc(Nc2ccc(Cl)cc2)n2c1nc1ccccc12`, the TGI is 5.93 µM.
Turning to `CC(=O)O[C@H](C[C@H](C(C)C)N(C)C(=O)[C@@H](NC(=O)[C@H]1CCCCN1C)C(C)C)c1cccc(C(=O)N[C@@H](Cc2ccccc2)C[C@H](C)C(=O)O)n1`, the GI50 is 0.0475 µM and the TGI was above 25 µM.
Regarding `O=C(C1OC1c1cccc([N+](=O)[O-])c1)C12CC3CC(CC(C3)C1)C2` (stereo not drawn), the TGI worked out at 23.1 µM.
Take `CC(=O)c1c(O)n(-c2ccc(C)cc2)c(=O)c2c(N)n[nH]c12`: the TGI was above 100 µM.
Consider `N#C/C(=C\c1ccccc1)C(NO)Nc1ccccc1` (stereo not drawn), for which the TGI was above 100 µM.
Take `CCN(CC)c1nc(NC2CCCCC2)c2nc(N(CC)CC)nc(NC3CCCCC3)c2n1`: the TGI was above 100 µM.
